One test deals with T1, human TGFβ1 (human, UniProt P01137 partial chain).
T1 construct: also called hTGFβ1
The experiment in a line: ELISA, plate coated with 0.5 µg/ml human TGFβ1, HRP secondary antibody, OD450. (An ELISA detects its analyte on a solid surface through an enzyme-linked reagent.)

A further test addresses T2, human TGFβ3 (human, UniProt P10600 301-412).
T2 construct: also called hTGFβ3
T2 sequence (looked up): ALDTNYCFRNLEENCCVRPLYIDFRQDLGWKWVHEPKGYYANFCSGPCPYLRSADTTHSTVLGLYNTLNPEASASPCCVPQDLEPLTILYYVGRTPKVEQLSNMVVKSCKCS
The experiment in a line: ELISA, plate coated with 0.5 µg/ml human TGFβ3, HRP secondary antibody, OD450.

In test [1] the target is T3, human CD47 (human, UniProt Q08722).
T3 construct: whole, on cells; also called CD47 tf CHO-S; endogenous CD47 on FaDu and NCI-H460 cells
The experiment in a line: flow cytometry on untransfected DLD1 cells in a 1:1 mixture with PD-L1 tf DLD1 cells; CD47 as the target on DLD1 is inferred from the controls of FIGS. 6A-6E, the filing does not name it [G]. (In flow cytometry, cells or beads pass a laser one at a time.)

In test [2] the target is T4, human PD-L1 (human, UniProt Q9NZQ7).
T4 construct: whole, on cells; For the PD-L1 tf DLD1 cells the species of PD-L1 is not restated; also called PD-L1 tf CHO-S; PD-L1 tf DLD1
The experiment in a line: flow cytometry on PD-L1 tf DLD1 cells in a 1:1 mixture with DLD1 cells, PE goat anti-human IgG; these cells also bind the anti-CD47 controls (FIGS. 6A-6B), so the CD47 arm may add to the signal [G].

Test [3] concerns the target T3, human CD47. The experiment in a line: flow cytometry competition on CD47 tf CHO-S cells against a fixed concentration of biotinylated SIRPα_G4, streptavidin-PE; IC50 from the table under the curves.
Test [4] deals with T4, human PD-L1. The experiment in a line: flow cytometry competition on PD-L1 tf CHO-S cells against a fixed concentration of biotinylated PD1_G4, streptavidin-PE; IC50 from the table under the curves.
The target in test [5] is T4, human PD-L1. The experiment in a line: flow cytometry on PD-L1 tf CHO-S cells, PE goat anti-human IgG; EC50 from the table under the curves.
In test [6] the target is T3, human CD47. The experiment in a line: flow cytometry on CD47 tf CHO-S cells, PE goat anti-human IgG; EC50 from the table under the curves.
The target of test [7] is T3, human CD47. The experiment in a line: flow cytometry on NCI-H460 cells (endogenous CD47), PE goat anti-human IgG.
Test [8] has as its target T4, human PD-L1. The experiment in a line: flow cytometry on PD-L1 tf DLD1 cells in a 1:1 mixture with DLD1 cells, PE goat anti-human IgG; these cells also bind the anti-CD47 controls (FIGS. 6A-6B), so the CD47 arm may add to the signal [H].
Test [9] addresses T3, human CD47. The experiment in a line: flow cytometry on untransfected DLD1 cells in a 1:1 mixture with PD-L1 tf DLD1 cells; CD47 as the target on DLD1 is inferred from the controls of FIGS. 6A-6E, the filing does not name it [H].
Test [10] has as its target T3, human CD47. The experiment in a line: flow cytometry on untransfected DLD1 cells in a 1:1 mixture with PD-L1 tf DLD1 cells; CD47 as the target on DLD1 is inferred from the controls of FIGS. 6A-6E, the filing does not name it [F].
Test [11] deals with T4, human PD-L1. The experiment in a line: flow cytometry on PD-L1 tf DLD1 cells in a 1:1 mixture with DLD1 cells, PE goat anti-human IgG; these cells also bind the anti-CD47 controls (FIGS. 6A-6B), so the CD47 arm may add to the signal [F].
In test [12] the target is T3, human CD47. The experiment in a line: flow cytometry on human RBCs (CD47 on RBCs per paragraph 5), PE goat anti-human IgG.
The target in test [13] is T4, human PD-L1. The experiment in a line: flow cytometry on PD-L1 tf DLD1 cells in a 1:1 mixture with DLD1 cells, PE goat anti-human IgG; these cells also bind the anti-CD47 controls (FIGS. 6A-6B), so the CD47 arm may add to the signal [J].
Test [14] addresses T3, human CD47. The experiment in a line: flow cytometry on untransfected DLD1 cells in a 1:1 mixture with PD-L1 tf DLD1 cells; CD47 as the target on DLD1 is inferred from the controls of FIGS. 6A-6E, the filing does not name it [J].
The target in test [15] is T3, human CD47. The experiment in a line: flow cytometry on untransfected DLD1 cells in a 1:1 mixture with PD-L1 tf DLD1 cells; CD47 as the target on DLD1 is inferred from the controls of FIGS. 6A-6E, the filing does not name it [I].
For test [16], the target named is T4, human PD-L1. The experiment in a line: flow cytometry on PD-L1 tf DLD1 cells in a 1:1 mixture with DLD1 cells, PE goat anti-human IgG; these cells also bind the anti-CD47 controls (FIGS. 6A-6B), so the CD47 arm may add to the signal [I].

Experimental findings from US20240400691A1 (FBD BIOLOGICS, published 2024) are described below.

Chain of human TGFβ1 (P01137 279-390 limits assumed): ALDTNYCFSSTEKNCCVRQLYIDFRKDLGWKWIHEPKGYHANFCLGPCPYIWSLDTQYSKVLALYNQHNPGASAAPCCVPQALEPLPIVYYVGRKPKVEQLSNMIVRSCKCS
T4 sequence (Q9NZQ7 19-290): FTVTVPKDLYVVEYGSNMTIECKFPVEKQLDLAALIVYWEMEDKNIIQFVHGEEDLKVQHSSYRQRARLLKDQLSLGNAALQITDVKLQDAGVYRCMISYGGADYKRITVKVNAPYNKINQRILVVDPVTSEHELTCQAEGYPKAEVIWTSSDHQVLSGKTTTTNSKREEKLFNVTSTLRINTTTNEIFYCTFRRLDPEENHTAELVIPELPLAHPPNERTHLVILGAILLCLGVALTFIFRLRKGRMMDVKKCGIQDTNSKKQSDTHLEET

B1: HCB101 (Fc fusion)
chain: EEELQVIQPDKSVSVAAGESAILTCTVTSLYPVGPIQWFRGAGPARELIYNQKRQTFPRVTTVSESTKRFNMDFSISISNITPADAGTYYCVKFRKGSPDTEFKSGAGTELSVRAKPS[human IgG4 Fc with S228P (EU numbers) not shown]
In the case of B1, the binding result in the test with human TGFβ1 and with human TGFβ3 was “no binding (tested: 500 nM)” in each case.

B2: SPT_G1_v5 (Fc fusion)
chain: EEELQVIQPDKSVSVAAGESAILTCTVTSLYPVGPIQWFRGAGPARELIYNQKRQTFPRVTTVSESTKRFNMDFSISISNITPADAGTYYCVKFRKGSPDTEFKSGAGTELSVRAKPSGSGGSGGSGGSGGSGGSGQVQLVESGGGVVQPGRSLRLSCAASGGPFMSYAMGWFRQAPGKEREFVAAIRWNGISTFYADSVKGRFTISRDNSKNTLYLQMNSLRAEDTAVYYCAAAQTIVTVPENYHFDYWGQGTQVTVSS[human IgG1 Fc with changes not shown]GGGGSGGGGSGGGGSGGGGSGIPPHVQKSVNNDMIVTDNNGAVKFPQLCKFCDVRFSTCDNQKSCMSNCEITSICEKPQEVCVAVWRKNDENITLETVCHDPKLPYHDFILEDAASPKCIMKEKKKPGETFFMCSCSSEECNDNIIFSEEYNTSNPD
notes: also called HCB301_v5 protein; triple-targeting format
Turning to B2, the EC50 (read off the curve) (as a rule, the concentration giving half of the maximal effect) with human CD47 [1] is about 7 nM; with human PD-L1 [2], about 4 nM; with human TGFβ1, about 0.7 nM; with human TGFβ3 it was about 1 nM; with human CD47 [7], about 0.7 nM. For the same molecule, the results for the IC50 with human CD47 [3] and with human PD-L1 [4] were 1.18 nM and 0.834 nM, respectively. Besides, the EC50 – broadly, the concentration that produces a half-maximal response – with human PD-L1 [5] amounted to 1.57 nM; with human CD47 [6], 2.44 nM.

B3: PST_G1_v5 (Fc fusion)
chain: QVQLVESGGGVVQPGRSLRLSCAASGGPFMSYAMGWFRQAPGKEREFVAAIRWNGISTFYADSVKGRFTISRDNSKNTLYLQMNSLRAEDTAVYYCAAAQTIVTVPENYHFDYWGQGTQVTVSSGSGGSGGSGGSGGSGGSGEEELQVIQPDKSVSVAAGESAILTCTVTSLYPVGPIQWFRGAGPARELIYNQKRQTFPRVTTVSESTKRFNMDFSISISNITPADAGTYYCVKFRKGSPDTEFKSGAGTELSVRAKPS[human IgG1 Fc with changes not shown]GGGGSGGGGSGGGGSGGGGSGIPPHVQKSVNNDMIVTDNNGAVKFPQLCKFCDVRFSTCDNQKSCMSNCEITSICEKPQEVCVAVWRKNDENITLETVCHDPKLPYHDFILEDAASPKCIMKEKKKPGETFFMCSCSSEECNDNIIFSEEYNTSNPD
notes: as for B2
For the molecule B3, the concentration giving a half-maximal response (EC50 (read off the curve)) is about 1 nM with human PD-L1 [8]; about 3 nM with human CD47 [9]; about 1 nM in the test with human TGFβ1; about 0.3 nM in the test with human TGFβ3; about 0.8 nM with human CD47 [7]. Besides, the IC50 (as a rule, the concentration at which inhibition is half-maximal) was determined as 1.28 nM with human CD47 [3] and 0.364 nM with human PD-L1 [4]. Also, the EC50 came to 0.32 nM with human PD-L1 [5] and 0.87 nM with human CD47 [6].

B4: SPT_G4_v5 (Fc fusion)
chain: EEELQVIQPDKSVSVAAGESAILTCTVTSLYPVGPIQWFRGAGPARELIYNQKRQTFPRVTTVSESTKRFNMDFSISISNITPADAGTYYCVKFRKGSPDTEFKSGAGTELSVRAKPSGSGGSGGSGGSGGSGGSGQVQLVESGGGVVQPGRSLRLSCAASGGPFMSYAMGWFRQAPGKEREFVAAIRWNGISTFYADSVKGRFTISRDNSKNTLYLQMNSLRAEDTAVYYCAAAQTIVTVPENYHFDYWGQGTQVTVSS[human IgG4 Fc with S228P (EU numbers) not shown]AGGGGSGGGGSGGGGSGGGGSGIPPHVQKSVNNDMIVTDNNGAVKFPQLCKFCDVRFSTCDNQKSCMSNCEITSICEKPQEVCVAVWRKNDENITLETVCHDPKLPYHDFILEDAASPKCIMKEKKKPGETFFMCSCSSEECNDNIIFSEEYNTSNPD
notes: expressed in CHO-S cells; also called HCB301_v5 protein; triple-targeting format
Take B4: the results for the IC50 with human CD47 [3] and with human PD-L1 [4] were 1.14 nM and 0.664 nM, respectively. Moreover, the “EC50 (read off the curve)” value was about 3 nM in the test with human CD47 [10]; about 1 nM with human PD-L1 [11]; about 0.5 nM with human TGFβ1; about 0.7 nM with human CD47 [12]; about 0.5 nM in the test with human CD47 [7]. Further, the EC50 with human PD-L1 [5] worked out at 0.36 nM; with human CD47 [6], 0.55 nM.

B5: SP_G1_v5 (Fc fusion)
chain: EEELQVIQPDKSVSVAAGESAILTCTVTSLYPVGPIQWFRGAGPARELIYNQKRQTFPRVTTVSESTKRFNMDFSISISNITPADAGTYYCVKFRKGSPDTEFKSGAGTELSVRAKPSGSGGSGGSGGSGGSGGSGQVQLVESGGGVVQPGRSLRLSCAASGGPFMSYAMGWFRQAPGKEREFVAAIRWNGISTFYADSVKGRFTISRDNSKNTLYLQMNSLRAEDTAVYYCAAAQTIVTVPENYHFDYWGQGTQVTVSS[human IgG1 Fc with changes not shown]
notes: also called HCB301_v5 protein; double-targeting format
As to B5, the “EC50 (read off the curve)” value was about 1 nM with human PD-L1 [13] and about 4 nM in the test with human CD47 [14]. For the same molecule, the IC50 amounted to 0.694 nM with human CD47 [3] and 0.413 nM in the test with human PD-L1 [4]. Also, in the test with human TGFβ1, the binding result is reported as “no binding (tested: 500 nM)”. Further, the EC50 with human PD-L1 [5] was determined as 0.31 nM; with human CD47 [6], 0.8 nM.

B6: SP_G4_v5 (Fc fusion)
chain: EEELQVIQPDKSVSVAAGESAILTCTVTSLYPVGPIQWFRGAGPARELIYNQKRQTFPRVTTVSESTKRFNMDFSISISNITPADAGTYYCVKFRKGSPDTEFKSGAGTELSVRAKPSGSGGSGGSGGSGGSGGSGQVQLVESGGGVVQPGRSLRLSCAASGGPFMSYAMGWFRQAPGKEREFVAAIRWNGISTFYADSVKGRFTISRDNSKNTLYLQMNSLRAEDTAVYYCAAAQTIVTVPENYHFDYWGQGTQVTVSS[human IgG4 Fc with S228P (EU numbers) not shown]
notes: as for B5
With B6, the figures for the “EC50 (read off the curve)” value in the test with human CD47 [15] and with human PD-L1 [16] were about 5 nM and about 1 nM, respectively. Besides, the IC50 with human CD47 [3] is 0.999 nM; with human PD-L1 [4], 0.614 nM. Moreover, the binding result with human TGFβ1 is listed as “no binding (tested: 500 nM)”. For the same molecule, the values for the EC50 with human PD-L1 [5] and with human CD47 [6] were 0.48 nM and 0.79 nM, respectively.
